Results are given in words; binding and its absence hold for the method and conditions named. In cells and extracts the contact can be indirect. Some binding calls cover weakened binding; strength is not graded here. For part of these data: Tags and fused reporters may be left off the sequences shown.

Chains of the proteins cited; added tags and fusions are not shown. Lines headed by an entry give the natural chain unless they say otherwise; changes in a name come on top. A line that says so, or that is headed by a name, gives the form on record, which may keep a tag or linker. Residues count along the entry.
UniProt Q8IUC6: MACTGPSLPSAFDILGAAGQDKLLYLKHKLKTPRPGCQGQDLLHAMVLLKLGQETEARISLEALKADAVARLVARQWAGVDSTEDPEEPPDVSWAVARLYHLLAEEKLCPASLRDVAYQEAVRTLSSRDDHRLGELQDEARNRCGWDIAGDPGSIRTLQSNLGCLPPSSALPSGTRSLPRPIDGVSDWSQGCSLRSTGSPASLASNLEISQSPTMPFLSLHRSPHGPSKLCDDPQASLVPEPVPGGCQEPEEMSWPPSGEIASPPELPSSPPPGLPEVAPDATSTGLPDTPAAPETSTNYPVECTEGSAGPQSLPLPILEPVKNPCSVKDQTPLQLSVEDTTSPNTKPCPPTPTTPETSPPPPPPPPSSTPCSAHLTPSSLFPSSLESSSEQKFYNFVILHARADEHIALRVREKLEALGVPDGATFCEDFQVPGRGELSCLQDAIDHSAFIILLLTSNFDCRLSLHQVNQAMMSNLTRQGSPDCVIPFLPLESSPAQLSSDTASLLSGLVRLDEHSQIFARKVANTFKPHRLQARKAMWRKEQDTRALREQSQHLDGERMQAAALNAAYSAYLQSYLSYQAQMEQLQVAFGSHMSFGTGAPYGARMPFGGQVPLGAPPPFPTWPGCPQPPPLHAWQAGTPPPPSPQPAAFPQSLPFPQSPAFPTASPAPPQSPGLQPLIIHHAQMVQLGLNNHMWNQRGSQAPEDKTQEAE
TRIF-N (aa 1–359), Flag-tagged: residues 1-359 of Q8IUC6
TRIF TIR (aa 387–556), Flag-tagged: residues 387-556 of Q8IUC6
TRIF-C (aa 534–712), Flag-tagged: residues 534-712 of Q8IUC6

For one experiment, the target named is Flag-TRIF (full length) (UniProt Q8IUC6). Put plainly: co-IP; 293T cells co-transfected, 24 h; lysed in RIPA buffer (25 mM Tris-HCl pH 7.4, 150 mM NaCl, 1 mM EDTA, 1% NP40, 0.25% sodium deoxycholate); anti-Flag M2 agarose beads overnight at 4°C; immunoblot with anti-Myc and anti-Flag antibodies. Background: A western blot detects proteins with antibodies after separation by electrophoresis.

Experiment [1] addresses TRIF-C (aa 534–712), Flag-tagged (UniProt Q8IUC6). The experiment is described as above.
The target of experiment [2] is TRIF-N (aa 1–359), Flag-tagged (UniProt Q8IUC6). The description is as above.
In experiment [3] the target is TRIF TIR (aa 387–556), Flag-tagged (UniProt Q8IUC6). Described as above.
In the next experiment the target is T1, Flag-TBK1 (UniProt Q9UHD2).
T1 sequence: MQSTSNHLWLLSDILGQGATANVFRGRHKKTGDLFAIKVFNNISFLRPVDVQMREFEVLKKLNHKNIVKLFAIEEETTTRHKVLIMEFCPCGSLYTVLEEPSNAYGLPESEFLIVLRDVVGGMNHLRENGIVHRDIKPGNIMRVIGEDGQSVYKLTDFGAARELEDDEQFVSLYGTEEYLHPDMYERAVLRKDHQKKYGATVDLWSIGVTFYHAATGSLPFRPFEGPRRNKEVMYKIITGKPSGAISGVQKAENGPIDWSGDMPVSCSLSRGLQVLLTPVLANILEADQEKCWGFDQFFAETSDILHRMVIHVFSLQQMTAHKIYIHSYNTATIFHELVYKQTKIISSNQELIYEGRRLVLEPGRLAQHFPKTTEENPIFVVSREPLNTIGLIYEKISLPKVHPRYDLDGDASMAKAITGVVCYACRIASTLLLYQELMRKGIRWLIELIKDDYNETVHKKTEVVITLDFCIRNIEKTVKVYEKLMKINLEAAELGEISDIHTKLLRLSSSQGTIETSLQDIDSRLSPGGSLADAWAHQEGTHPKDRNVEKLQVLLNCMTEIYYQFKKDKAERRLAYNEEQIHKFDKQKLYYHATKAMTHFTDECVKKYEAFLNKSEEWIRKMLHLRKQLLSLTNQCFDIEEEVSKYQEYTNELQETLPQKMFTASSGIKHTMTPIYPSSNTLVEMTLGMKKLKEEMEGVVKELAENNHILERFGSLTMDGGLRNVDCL
Described as above.

The target in the next experiment is T2, Flag-IKKi (UniProt Q14164).
T2 sequence: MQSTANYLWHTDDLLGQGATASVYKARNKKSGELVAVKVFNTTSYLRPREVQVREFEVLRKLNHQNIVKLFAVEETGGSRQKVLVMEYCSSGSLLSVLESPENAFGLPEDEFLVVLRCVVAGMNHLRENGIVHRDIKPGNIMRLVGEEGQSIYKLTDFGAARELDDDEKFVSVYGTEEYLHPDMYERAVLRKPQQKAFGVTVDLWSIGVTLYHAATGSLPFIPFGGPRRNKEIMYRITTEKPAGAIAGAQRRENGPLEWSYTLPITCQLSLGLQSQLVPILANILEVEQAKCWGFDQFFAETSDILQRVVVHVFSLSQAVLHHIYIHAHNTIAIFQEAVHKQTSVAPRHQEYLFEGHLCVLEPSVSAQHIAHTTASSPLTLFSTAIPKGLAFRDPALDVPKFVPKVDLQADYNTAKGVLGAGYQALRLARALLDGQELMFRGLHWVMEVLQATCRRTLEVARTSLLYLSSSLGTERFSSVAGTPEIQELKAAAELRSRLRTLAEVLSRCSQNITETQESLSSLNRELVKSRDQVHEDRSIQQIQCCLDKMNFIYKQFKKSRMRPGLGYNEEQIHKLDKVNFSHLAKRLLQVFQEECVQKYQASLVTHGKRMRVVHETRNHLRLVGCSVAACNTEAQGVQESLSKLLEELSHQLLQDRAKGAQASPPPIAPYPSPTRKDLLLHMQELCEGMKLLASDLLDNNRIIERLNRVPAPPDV
Described as above.

The target in experiment [4] is endogenous TRIF (human (endogenous in HeLa)) (UniProt Q8IUC6). Put plainly: co-IP; endogenous proteins; HeLa cells untreated or treated with 100 µg/ml poly(I:C) for 4 h, lysed in RIPA buffer; goat anti-TRIF antibody or control goat IgG overnight at 4°C, protein A/G beads; immunoblot with rabbit anti-TRIM38 and rabbit anti-TRIF antibodies.

B1: TRIM38 ΔPRYSPRY (aa 1–274) (domain or fragment, UniProt O00635 1-274)
chain: MASTTSTKKMMEEATCSICLSLMTNPVSINCGHSYCHLCITDFFKNPSQKQLRQETFCCPQCRAPFHMDSLRPNKQLGSLIEALKETDQEMSCEEHGEQFHLFCEDEGQLICWRCERAPQHKGHTTALVEDVCQGYKEKLQKAVTKLKQLEDRCTEQKLSTAMRITKWKEKVQIQRQKIRSDFKNLQCFLHEEEKSYLWRLEKEEQQTLSRLRDYEAGLGLKSNELKSHILELEEKCQGSAQKLLQNVNDTLSRSWAVKLETSEAVSLELHTMC
For B1, the binding entry in the experiment with Flag-TRIF (full length) is listed as “no binding”.

B2: TRIM38-Myc (full length TRIM38) (protein, UniProt O00635 1-465)
chain: MASTTSTKKMMEEATCSICLSLMTNPVSINCGHSYCHLCITDFFKNPSQKQLRQETFCCPQCRAPFHMDSLRPNKQLGSLIEALKETDQEMSCEEHGEQFHLFCEDEGQLICWRCERAPQHKGHTTALVEDVCQGYKEKLQKAVTKLKQLEDRCTEQKLSTAMRITKWKEKVQIQRQKIRSDFKNLQCFLHEEEKSYLWRLEKEEQQTLSRLRDYEAGLGLKSNELKSHILELEEKCQGSAQKLLQNVNDTLSRSWAVKLETSEAVSLELHTMCNVSKLYFDVKKMLRSHQVSVTLDPDTAHHELILSEDRRQVTRGYTQENQDTSSRRFTAFPCVLGCEGFTSGRRYFEVDVGEGTGWDLGVCMENVQRGTGMKQEPQSGFWTLRLCKKKGYVALTSPPTSLHLHEQPLLVGIFLDYEAGVVSFYNGNTGCHIFTFPKASFSDTLRPYFQVYQYSPLFLPPPGD
Take B2: the binding entry in experiment [1] was “no binding”; in experiment [2] it was “binds”; in the experiment with Flag-TRIF (full length), “binds”; in experiment [3], “no binding”; with Flag-TBK1 it was “no binding”; with Flag-IKKi, “no binding”.

B3: endogenous TRIM38 (protein, UniProt O00635 1-465)
chain: B2 chain
On to B3, for which the binding result in experiment [4] is recorded as “binds”.

B4: TRIM38 PRYSPRY (aa 274–465) (domain or fragment, UniProt O00635 274-465)
chain: CNVSKLYFDVKKMLRSHQVSVTLDPDTAHHELILSEDRRQVTRGYTQENQDTSSRRFTAFPCVLGCEGFTSGRRYFEVDVGEGTGWDLGVCMENVQRGTGMKQEPQSGFWTLRLCKKKGYVALTSPPTSLHLHEQPLLVGIFLDYEAGVVSFYNGNTGCHIFTFPKASFSDTLRPYFQVYQYSPLFLPPPGD
In the case of B4, in the experiment with Flag-TRIF (full length), the binding result is reported as “binds”.

The record behind these values is paper PMC3466175.
